Experimental data: PubChem BioAssay AID1768 (National Center for Advancing Translational Sciences (NCATS), 2009)
Values joined by “and” are separate entries in the source; they are usually repeats but may differ in a detail not shown here. Equal entries are not always repeated. In all, about 270,000 compounds went through this assay and about 620 (0.23%) were called active. This list was built around the results that the source calls inconclusive (neither active nor inactive); the mix of calls is not that of the screen. Calls follow the shape of the dose curve; as a rule, active = well fitted inhibition curve with a large enough effect in the polarisation, with a control signal flat (not every such curve was filed as active); inconclusive = small, poorly fitted or top-dose-only effect, or effect the other way, or a change in a side signal; inactive = no such curve, though single readings can be large or run the other way; the % refers to the polarisation. Potencies of inconclusive entries are doubtful fits and often do not repeat. A note “side channel” means that the fit belongs to a control or component signal, not to the main read-out.

Target: Menin (Homo sapiens) (UniProt O00255)
Assay: qHTS Assay for Inhibitors Targeting the Menin-MLL Interaction in MLL Related Leukemias: Competition With Texas Red Labeled MLL-derived Mutant Peptide; as to FP activity change, negative = inhibition: % of control where 0% means no effect
Details: fluorescence polarization; FP activity change, negative = inhibition: at 61.6 µM (top of the series)
Potency is read from the fitted curve at half-maximal effect; tags tell the direction and shape of the fitted curve or compound fluorescence and quenching.

Sequence of UniProt O00255 (O00255 whole entry, looked up): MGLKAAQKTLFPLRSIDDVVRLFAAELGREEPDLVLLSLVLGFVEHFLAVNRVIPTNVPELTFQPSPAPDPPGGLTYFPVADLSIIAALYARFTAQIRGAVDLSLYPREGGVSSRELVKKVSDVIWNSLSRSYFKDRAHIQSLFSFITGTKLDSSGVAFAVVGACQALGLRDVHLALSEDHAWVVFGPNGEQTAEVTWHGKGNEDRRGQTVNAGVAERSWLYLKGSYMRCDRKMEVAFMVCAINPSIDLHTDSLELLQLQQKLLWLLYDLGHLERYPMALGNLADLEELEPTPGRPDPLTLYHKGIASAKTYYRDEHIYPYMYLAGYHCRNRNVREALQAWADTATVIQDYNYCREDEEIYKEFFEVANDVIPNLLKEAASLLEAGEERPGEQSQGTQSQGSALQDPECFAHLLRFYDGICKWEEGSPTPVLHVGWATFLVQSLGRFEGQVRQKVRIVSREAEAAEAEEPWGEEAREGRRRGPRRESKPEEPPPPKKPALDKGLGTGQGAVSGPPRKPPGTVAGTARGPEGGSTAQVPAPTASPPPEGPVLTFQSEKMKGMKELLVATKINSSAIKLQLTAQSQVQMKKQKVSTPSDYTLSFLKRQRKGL

Row | SMILES | Potency | FP activity change, negative = inhibition
1 | CCCCn1c(-c2ccccc2)cnc1SCC(=O)NCCc1ccc(OC)c(OC)c1 | inconclusive: 31.6 µM [fluorescent, side channel, partial curve] | –
2 | CN(C(=O)CO/N=C/c1ccc(Cl)cc1)c1ccccc1 | inconclusive: 28.2 µM [fluorescent, side channel, single point] | –
3 | O=[N+]([O-])c1ccc(N/N=C/c2cccc(O)c2O)cc1 | inconclusive: 31.6 µM [quencher, side channel, partial curve] | –
4 | COc1cccc(N(C(=O)Cn2nnc(-c3cccs3)n2)C(C(=O)NC(C)C)c2ccc(C)o2)c1 (stereo unspecified) | inconclusive: 14.1 µM [fluorescent, side channel, partial curve] | –
5 | Cc1ccccc1C(=O)Nc1sc2c(c1C(=O)O)CCC2 | inconclusive: 28.2 µM [quencher, side channel, single point] | –
6 | Cc1oc2cc([N+](=O)[O-])c(O)c([N+](=O)[O-])c2c1C(=O)c1ccc(Br)cc1 | inconclusive: 31.6 µM [quencher, side channel, single point] | –
7 | O=C(Nc1ccc2c(c1)OCO2)C1CC(=O)N(c2ccc(F)cc2)C1 (stereo unspecified) | inconclusive: 31.6 µM [quencher, side channel, partial curve] | –
8 | CCn1c(SC(C)C(=O)NC2CCCc3ccccc32)nnc1-c1cccs1 (stereo unspecified) | inconclusive: 22.4 µM [fluorescent, side channel, single point] | –
9 | Cc1ccc(CNC(=O)C2CCN(S(=O)(=O)c3c(C)noc3/C=C/c3ccco3)CC2)cc1 | inconclusive: 11.2 µM [quencher, side channel, partial curve] | –
10 | CCCCCCc1cc2cc(S(=O)(=O)c3ccc(C)cc3)c(=O)oc2cc1O | inconclusive: 11.2 µM [quencher, side channel, partial curve] | –
11 | Fc1ccc(-[n+]2nc(Nc3ccccc3)sc2-c2c3ccccc3cc3ccccc23)cc1 | inconclusive: 7.08 µM [inhibitor, full curve, poor fit] | –
12 | O=C(Cc1ccc(Br)cc1)Nc1ccc2[nH]ncc2c1 | inconclusive: 35.5 µM [inhibitor, single point] | –
13 | Cc1c(C)c2c(OCC(=O)NCc3ccncc3)cc3c(c2oc1=O)CCC(C)(C)O3 | – | inactive: 10.4%
14 | O=S(=O)(Nc1ccn(-c2ccccc2)n1)c1ccc(Br)cc1 | inconclusive: 28.2 µM [quencher, side channel, single point] | –
15 | CCC1CCCCN1S(=O)(=O)c1ccc(C(=O)Nc2nnc(C3CC3)o2)cc1 (stereo unspecified) | inconclusive: 14.1 µM [quencher, side channel, partial curve] | –
16 | Cc1c(C(c2ccc(Br)cc2)c2c(C)n(C)n(-c3ccccc3)c2=O)c(=O)n(-c2ccccc2)n1C | inconclusive: 14.1 µM [fluorescent, side channel, partial curve] | –
17 | CC(C)C1C(=O)NC(=S)N1S(=O)(=O)c1ccc(C(C)(C)C)cc1 (stereo unspecified) | inconclusive: 28.2 µM [quencher, side channel, single point] | –
18 | C[C@]12CCC(=O)CC1CCC1C2CC[C@@]2(C)C1CC[C@@]21CCO1 (stereo partly specified) | inconclusive: 14.1 µM [fluorescent, side channel, partial curve] | –
19 | Nc1nonc1-n1nnc(C(=O)N/N=C/c2ccccc2F)c1CN1CCc2ccccc21 | inconclusive: 17.8 µM [quencher, side channel, partial curve] | –

Row | SMILES | Potency | FP activity change, negative = inhibition
20 | COc1cccc(-c2nccc(NCCc3c[nH]c4ccc(OC)cc34)n2)c1 | inconclusive: 12.6 µM [quencher, side channel, partial curve] | –
21 | COc1cc(CNc2cccc(F)c2)cc(Br)c1O | inconclusive: 25.1 µM [quencher, side channel, partial curve] | –
22 | CCN(CC)S(=O)(=O)c1cccc(C(=O)Nc2nc3cc4c(cc3s2)OCCO4)c1 | inconclusive: 10 µM [quencher, side channel, partial curve] | –
23 | O=c1[nH]cnc(O)c1C(c1ccc([N+](=O)[O-])cc1)c1c(O)nc[nH]c1=O | – | inactive: 1.05%
24 | CCC(C)[C@H](Nc1nc(-c2ccccc2)nc2c1oc1ccccc12)C(=O)O (stereo partly specified) | inconclusive: 10 µM [quencher, side channel, partial curve] | –
25 | COc1ccc2oc(-c3ccccc3[N+](=O)[O-])cc(=O)c2c1 | inconclusive: 39.8 µM [inhibitor, single point] | –
26 | O=C1NC(c2ccccc2)Nc2c1sc(=S)n2-c1ccccc1 (stereo unspecified) | inconclusive: 22.4 µM [quencher, side channel, single point] | –
27 | CCCc1cc(C(=O)Cc2nc3ccccc3s2)c(O)cc1O | inconclusive: 28.2 µM [quencher, side channel, partial curve] | –
28 | Cc1ccc2cccc(N=Cc3c(C)[nH]n(-c4ccccc4)c3=O)c2n1 | inconclusive: 11.2 µM [quencher, side channel, partial curve] | –
29 | N/C(Cc1ccc(Cl)cc1)=N\OC(=O)Cc1ccc([N+](=O)[O-])cc1 | inconclusive: 20 µM [quencher, side channel, single point] | –
30 | Clc1cccc(N/N=C/c2ccc(N3CCOCC3)cc2)c1 | inconclusive: 11.2 µM [quencher, side channel, partial curve] | –
31 | COC(=O)c1cc(C#N)c(NCc2ccccc2)nc1C | – | inactive: -0.879%
32 | COc1ccc(-c2cc(C(=O)NCC(c3ccccc3)N(C)C)c3ccccc3n2)cc1OC (stereo unspecified) | inconclusive: 20 µM [inhibitor, partial curve] | –
33 | O=C(N/N=C/c1cc(Br)c(O)c(Br)c1)c1cccnc1 | inconclusive: 28.2 µM [quencher, side channel, single point] | –
34 | O=c1[nH]c(/C=C/c2ccc(Cl)cc2Cl)c([N+](=O)[O-])c(=O)[nH]1 | inconclusive: 31.6 µM [quencher, side channel, single point] | –
35 | Cc1noc(C)c1COc1ccc(C(=O)OCC(=O)OC(C)(C)C)cc1 | inconclusive: 11.2 µM [fluorescent, side channel, partial curve] | –
36 | NC(=O)c1nsc(C(=O)N(c2ccccc2)C(C(=O)NCC2CCCO2)c2cccs2)c1N (stereo unspecified) | inconclusive: 25.1 µM [fluorescent, side channel, single point] | –
37 | Cc1cc(C)c(Cn2c(=O)n(CCCC(=O)NCc3ccco3)c(=O)c3sccc32)c(C)c1 | inconclusive: 25.1 µM [fluorescent, side channel, single point] | –
38 | CCC1CCCCN1C(=S)Nc1ccc(OC(F)F)cc1 (stereo unspecified) | inconclusive: 35.5 µM [inhibitor, partial curve, poor fit] | –

Row | SMILES | Potency | FP activity change, negative = inhibition
39 | Cn1cc(SCC(=O)Nc2ccc3c(c2)OCO3)c2ccccc21 | – | inactive: 11.6%
40 | COc1ccc(NS(=O)(=O)c2ccc(NC(=S)NC(=O)C(C)C)cc2)cc1 | inconclusive: 39.8 µM [quencher, side channel, single point] | –
41 | O=C(c1cc(-c2ccc(F)cc2)on1)N1CCCCCC1 | – | inactive: -28.4%
42 | Cc1[nH]n(-c2ccccc2)c(=O)c1/C=N/NC(=O)COc1ccccc1[N+](=O)[O-] | inconclusive: 20 µM [quencher, side channel, partial curve] | –
43 | O=C(Nc1nc2ccccc2[nH]1)c1cccc(Br)c1 | inconclusive: 17.8 µM [quencher, side channel, single point] | –
44 | COc1ccccc1NC(=O)c1sc2ncn(Cc3cccc4ccccc34)c(=O)c2c1C | – | inactive: 1.07%
45 | Cc1cc(C)c(C)c(S(=O)(=O)N2CCN(C)CC2)c1C | inconclusive: 14.1 µM [fluorescent, side channel, partial curve] | –
46 | N#Cc1sc2nc(-c3ccccc3)cc(C(F)(F)F)c2c1N | – | inactive: 17.7%
47 | Cc1nc2cc(NC(=O)N3c4ccccc4CC3C)ccc2o1 (stereo unspecified) | inconclusive: 44.7 µM [inhibitor, partial curve, poor fit] | –
48 | C/C(=N\Nc1nnc(C)c(=O)[nH]1)C(=O)O | – | inactive: -25.6%
49 | COC(=O)CCn1nc(-c2ccc(C)cc2)c2ccccc2c1=O | inconclusive: 11.2 µM [fluorescent, side channel, partial curve, poor fit] | –
50 | CC1=CC(=O)c2ccccc2C1=O | inconclusive: 12.6 µM [quencher, partial curve] and inconclusive: 17.8 µM [quencher, side channel, partial curve] | –
51 | S=c1[nH]nc(-c2ccncc2)n1/N=C/C=C/c1ccco1 | inconclusive: 39.8 µM [quencher, side channel, single point] | –
52 | C/C(=N\Nc1ccc([N+](=O)[O-])cc1)c1ccc(O)cc1 | inconclusive: 11.2 µM [quencher, side channel, partial curve] | –
53 | COC(=O)c1cccc(NC(=S)NCc2ccc(Cl)cc2)c1 | inconclusive: 17.8 µM [quencher, side channel, partial curve] | –
54 | Nc1nonc1-n1nnc(C(=O)N/N=C/c2cccnc2)c1CSc1ccc(Cl)cc1 | inconclusive: 31.6 µM [quencher, side channel, partial curve] | –
55 | CCOc1cc2[nH]c(=O)n(CCCC(=O)NCc3ccc(OC)cc3)c(=O)c2cc1OCC | inconclusive: 39.8 µM [fluorescent, side channel, single point] | –
56 | O=S(=O)(O)c1cccc2c(N=Nc3ccc(O)c4ncccc34)cccc12 | inconclusive: 11.2 µM [quencher, side channel, partial curve] | –
